In the supplement of paper PMC4723716:
± gives the uncertainty stated by the source. Over roughly 9,900 compounds, “viability index relative to DMSO control” has its median near 1; the lowest 2% begin near 0.85. Some of the results follow.

The molecules below were run on Plasmodium falciparum NF54 stage V gametocytes (assay: viability index relative to DMSO control (fraction); higher = less gametocyte killing). Settings: 2.5 µM, library set: Broad Institute DOS, incubation time: 72 h.
How it was run: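 P. falciparum NF54 stage V gametocytes in serum-free screening medium (0.75% gametocytemia, 1.25% hematocrit, 10 µl) were incubated with compound at 2.5 µM in 1,536-well plates for 72 hr at 37°C under low oxygen. Then 3 µl of 2.5 µM MitoTracker Red CMXRos plus 0.13% saponin was added for one to two hours. One field per well was imaged, 20–70 µm2 red particles were counted, and the viability index was the count divided by the plate mean of DMSO wells.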

| Compound | viability index |
| --- | --- |
| CCCC#Cc1ccc([C@@H]2[C@@H](CO)N3C(=O)CN(C(=O)c4cccnc4)C[C@@H]23)cc1 | 1.04 ± 0.035 |
| O=C(Nc1ccc(F)cc1)N1CC(=O)N2[C@H](C1)[C@H](c1ccc(C#Cc3cccnc3)cc1)[C@@H]2CO | 1.08 ± 0.07 |
| CN(C)C(=O)C[C@H]1CC[C@H]2[C@@H](COC[C@@H](O)CN2C(=O)C2CCOCC2)O1 | 1.09 ± 0.039 |
| O=C(Nc1ccccc1Cl)N1C[C@H]2[C@@H](c3ccccc31)[C@@H](CO)N2C(=O)c1cccnc1 | 1.07 ± 0.036 |
| CC(C)NC(=O)N1Cc2cc(C(=O)NC3Cc4ccccc4C3)nc(-c3cccc(-c4cccnc4)c3)c2[C@@H]1CCO | 0.97 ± 0.052 |
| COc1ccc2c3c([C@H](CO)N(CC4CC4)C[C@]33CN(C3)C(=O)c3ccc4OCOc4c3)n(C)c2c1 | 0.976 ± 0.068 |
| CN1C(=O)c2cc(NC(=O)c3cccc(C(F)(F)F)c3)ccc2OC[C@@H]2O[C@@H](CC(=O)NCCN3CCCC3)CC[C@H]21 | 1.01 ± 0.086 |
| CCCNC(=O)N(C)C[C@@H]1Oc2cc(C#C[C@H](C)O)ccc2S(=O)(=O)N([C@@H](C)CO)C[C@@H]1C | 1.04 ± 0.025 |
| O=C(C[C@H]1C[C@@H]2c3cc(NC(=O)C4CCOCC4)ccc3O[C@@H]2[C@H](CO)O1)NCc1cccnc1 | 1.03 ± 0.025 |
| C[C@@H]1CN([C@H](C)CO)C(=O)c2cc(NC(=O)C3CCCCC3)ccc2O[C@H]1CN(C)C(=O)Nc1ccc(C(F)(F)F)cc1 | 0.978 ± 0.045 |
| C/C=C/c1ccc([C@H]2[C@H]3CNC[C@@H]2N3C(=O)NC2CCCCC2)cc1 | 1.11 ± 0.079 |
| O=C(C[C@@H]1C[C@@H]2c3cc(NC(=O)NC4CCCC4)ccc3O[C@@H]2[C@@H](CO)O1)NCc1ccccc1F | 1.096 ± 0.0033 |
| C[C@H]1COCn2nncc2CC[C@@H](Cc2ccc(-c3ccccc3)cc2)C(=O)N1 | 1.05 ± 0.079 |
| Cc1ccc(S(=O)(=O)N2CC[C@H]3[C@@H](CO)N(C)c4ccc(-c5ccccc5F)cc4[C@H]32)cc1 | 1 ± 0.016 |
| CCS(=O)(=O)N1CCCCN2[C@H](CO)[C@@H](c3ccc(-c4ccc(C(=O)N(C)C)cc4)cc3)[C@@H]2C1 | 1.018 ± 0.0058 |
| O=C(Nc1ccc(F)cc1)N1[C@H](CO)[C@H]2c3ccccc3NC[C@H]21 | 1.031 ± 0.0082 |
| COc1ccccc1-c1ccc([C@@H]2[C@H]3CNC[C@@H]2N3Cc2ccc(F)cc2)cc1 | 1.109 ± 0.0035 |
| Cc1noc(C)c1NC(=O)Nc1cccc2c1O[C@H](CN(C)Cc1ccc(C(=O)Nc3ccccc3N)cc1)[C@H](C)CN([C@H](C)CO)C2=O | 0.983 ± 0.072 |
| O=C(NC1CCCCC1)N1CC2(C1)[C@H](c1ccccc1)[C@@H](CO)N2S(=O)(=O)Cc1ccccc1 | 1.05 ± 0.09 |
| CCS(=O)(=O)Nc1ccc2c(c1)C(=O)N(C)[C@@H]1CC[C@H](CC(=O)N[C@H]3CCN(Cc4ccccc4)C3)O[C@@H]1CO2 | 1.13 ± 0.099 |
| CCS(=O)(=O)N1Cc2cc(C(=O)NCC3CC3)nc(-c3cccc(-c4cccnc4)c3)c2[C@H]1CCO | 0.952 ± 0.017 |
| O=C(Nc1ccc(F)cc1)N1C[C@H]2[C@@H](c3ccccc31)[C@@H](CO)N2Cc1ccccc1Cl | 1.02 ± 0.1 |
| C[C@H]1CN([C@@H](C)CO)C(=O)CCCn2nncc2CO[C@@H]1CN(C)Cc1ccc2cccnc2c1 | 0.879 ± 0.04 |

| Compound | viability index |
| --- | --- |
| CNC[C@H]1Oc2cc(C#Cc3ccccc3OC)ccc2S(=O)(=O)N([C@@H](C)CO)C[C@@H]1C | 0.867 ± 0.022 |
| CCC(=O)N1CC(=O)N2[C@H](CO)[C@@H](c3ccc(-c4ccc(C#N)cc4)cc3)[C@H]2C1 | 0.98417 ± 3.9e-05 |
| CO[C@H]1CN(C)C(=O)c2ccc(NS(=O)(=O)c3c(C)noc3C)cc2OC[C@@H](C)NC[C@H]1C | 1.06 ± 0.03 |
| COc1ccc2c3c([nH]c2c1)[C@H](CO)N(C[C@]31CCN(CC1)S(=O)(=O)c1cccs1)C(=O)c1ccc(F)cc1 | 1.12 ± 0.048 |
| N#C[C@@H]1[C@@H](c2ccccc2)[C@H](CO)N1C(=O)c1ccccc1F | 1.1 ± 0.018 |
| CO[C@@H](C(=O)N(C)C[C@@H]1OCc2ccccc2-c2ccccc2C(=O)N([C@@H](C)CO)C[C@@H]1C)c1ccccc1 | 0.958 ± 0.12 |
| Cc1noc(C)c1S(=O)(=O)N(C)C[C@@H]1OCc2ccccc2-c2ccccc2C(=O)N([C@@H](C)CO)C[C@H]1C | 1.09 ± 0.011 |
| COc1ccc2c3c([nH]c2c1)[C@@H](CO)N(C[C@]31CCN(CC1)C(=O)NC(C)C)C(=O)c1ccc(F)cc1 | 1.042 ± 0.005 |
| C[C@@H]1CN([C@@H](C)CO)C(=O)c2ccccc2-c2ccccc2CO[C@@H]1CN(C)C(=O)[C@@H](Cc1ccccc1)N(C)C | 1.05 ± 0.081 |
| C[C@@H]1CN([C@@H](C)CO)C(=O)c2c(c3ccccc3n2C)-c2ccccc2CO[C@@H]1CN(C)C(=O)NC1CCCCC1 | 1.03 ± 0.033 |
| COc1ccc(NC(=O)N(C)C[C@H]2OCc3cnnn3CCCC(=O)N([C@H](C)CO)C[C@@H]2C)c(OC)c1 | 1.08 ± 0.12 |
| CN1C(=O)c2cc(NC(=O)Nc3ccc(Cl)cc3)ccc2OC[C@@H]2O[C@H](CC(=O)NCCN3CCCCC3)CC[C@H]21 | 0.955 ± 0.11 |
| O=C1CNC[C@@H]2[C@H](c3ccc(C4=CCCC4)cc3)[C@@H](CO)N12 | 1.082 ± 0.0029 |
| CC(=O)N1[C@H](CN(CC2CCC2)C(=O)CN(C)C)[C@@H](c2ccccc2)[C@@H]1CO | 1.0227 ± 0.00093 |
| C[C@@H]1CN([C@H](C)CO)C(=O)c2cc(NS(=O)(=O)c3cn(C)cn3)ccc2O[C@@H](C)CCCCO[C@@H]1CN(C)Cc1ccc2c(c1)OCO2 | 1.15 ± 0.07 |
| CCNC(=O)C[C@@H]1CC[C@H]2[C@@H](COC[C@@H](O)CN2C(=O)C2CCCC2)O1 | 1.024 ± 0.0049 |
| COc1ccc(CNC(=O)C[C@H]2C=C[C@H](NC(=O)c3cccc(F)c3)[C@H](CO)O2)cc1 | 1.03 ± 0.047 |
| C[C@@H]1CN([C@@H](C)CO)C(=O)Cc2cc(N(C)C)ccc2O[C@@H]1CN(C)C(=O)NC1CCCCC1 | 1.01 ± 0.032 |
| O=C(Nc1ccccc1F)N[C@H]1CC[C@@H](CCNC(=O)C2CC2)O[C@H]1CO | 1.09 ± 0.07 |
| COCC(=O)N1CC[C@@H]2[C@@H](CO)Nc3ccc(C#Cc4ccc(F)cc4)cc3[C@@H]21 | 1.09 ± 0.021 |
| COCC#Cc1ccc([C@H]2[C@H]3CN(C(=O)NC4CCCC4)CCCCN3[C@H]2CO)cc1 | 0.952 ± 0.088 |
| CC(C)NC(=O)N1[C@@H](CO)[C@@H](c2ccccc2)C12CN(C(=O)Cc1cccnc1)C2 | 1.13 ± 0.022 |
